Experimental data: the RNAGym collection of RNA variant scans (doi:10.1093/nar/gkz1192)
The source gives no read counts; variants with many changes may rest on few reads.

B1: CPEB3 Ribozyme (parent)
chain: UAACAGGGGGCCACAGCAGAAGCGUUCACGUCGCAGCCCCUGUCAGAUUCUGGUGAAUCUGCGAAUUCUGCUGUAUAUCUC

Variants of: B1
Experiment: self-cleavage, relative activity (ratio to wild type); higher = more cleavage; in vitro, sequencing
Procedure, shortened: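 Libraries of CPEB3 self-cleaving ribozyme mutants came from rounds of error-prone PCR and carried barcodes, which DNA sequencing matched to variants. In vitro transcription used T7 RNA polymerase at 37°C for 5 hours, with a further 15 min in DNase I before EDTA stopped the reaction; the ribozymes cleaved during both steps. The RNA was reverse transcribed with template switching and sequenced on Illumina. Relative activity is the cleaved/total read fraction of a variant divided by that of the unmutated ribozyme, averaged over three batches with at least 5 reads.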

| Variant | self-cleavage |
| --- | --- |
| U1C G6A A21G U43C G61A | 0.17 |
| U1C G6A U54G U60C U69A U80C | 0.15 |
| U1C G7A A15U U26C U54C U66A | 0.04 |
| U1C G7A C11G A28G G52A U58A | 0.1 |
| U1C G7U A21U U54A | 0.23 |
| U1C G7U U25C U43C A57U U80C | 0.03 |
| U1C G8A A18G A35U U49C U60C | 0.2 |
| U1C G8A U31A U48C | 0.04 |
| U1C G8C A15G U41A U67C A75G U78G | 0.04 |
| U1C G8U A13G A21G A28U | 0.05 |
| U1C G8U A13U U51G | 0.32 |
| U1C G8U U54C A56G A57G U60C U78C | 0.04 |
| U1C G9A A35C U58C G73U U74C | 0.05 |
| U1C G9A C14U A56G | 0.33 |
| U1C G9A C38U A65U U69A | 0.1 |
| U1C G9A C39G U54A U69A A75U | 0.03 |
| U1C G9C U26A U49A A64U | 0.04 |
| U1C G9U A15G G24A U41A | 0.11 |
| U1C G9U G33U C39U | 0.04 |
| U1C G10U G36C U51C A65G U78C | 0.05 |
| U1C G16A A20G A21G U43A | 0.1 |
| U1C G16C U31A | 0.28 |
| U1C G24A A35U U41C U66A | 0.07 |
| U1C G30A A57G A77G | 0.11 |

| Variant | self-cleavage |
| --- | --- |
| U1C G30U A35G U41A A45G U48C U66C | 0.06 |
| U1C G33A U54G A56U | 0.15 |
| U1C G36A U58C U80A | 0.44 |
| U1C G36A U80C | 0.25 |
| U1C G42A U54A | 0.29 |
| U1C G42A U72A | 0.28 |
| U1C G52A U60C C62U U67G U76C | 0.1 |
| U1C G55C A56G U60A U69C U76A C81U | 0.07 |
| U1C U25A U80A | 0.35 |
| U1C U25C A35G U41A U54A U69C | 0.27 |
| U1C U25C A64U U74G | 0.15 |
| U1C U25C A77U U78C | 0.36 |
| U1C U25C C32A U41C A57G U69C | 0.05 |
| U1C U25C U26A U49C | 0.28 |
| U1C U25C U26C A35G A65G A75G | 0.93 |
| U1C U25C U41A U51C U58C | 0.18 |
| U1C U25G C27U U41C A75U U80C | 0.1 |
| U1C U26A C40U | 0.18 |
| U1C U26A G36U A45G U49A U51C | 0.05 |
| U1C U26A U41A A56G U66C | 0.28 |
| U1C U26C A47G U72A U80A | 0.11 |
| U1C U26C A65U | 0.1 |
| U1C U26C G33A U41A U48C | 0.06 |
| U1C U26C G52A U78C | 0.21 |

| Variant | self-cleavage |
| --- | --- |
| U1C U26C U54C U67C G70A | 0.07 |
| U1C U26C U69A U78A | 0.07 |
| U1C U31C A35G A45G U58C U72A | 0.25 |
| U1C U31C A45G | 0.45 |
| U1C U31C A64U | 0.21 |
| U1C U31C C44A U54C A64G | 0.25 |
| U1C U31C G33A C40G U49C U51C U74C | 0.06 |
| U1C U31C U54A U60C U74C | 0.68 |
| U1C U31C U54C U78A | 0.77 |
| U1C U31C U66A U72C | 0.08 |
| U1C U41A A45G U54C | 0.17 |
| U1C U41A U69C | 0.31 |
| U1C U41C U51C U54C U76C | 1.02 |
| U1C U41C U69C | 0.73 |
| U1C U41C U72C | 1.2 |
| U1C U43A A57G | 1.18 |
| U1C U43C A45G | 0.61 |
| U1C U43C U51A U54G C59A | 0.16 |
| U1C U43C U69A | 0.32 |
| U1C U48C G55U U60C C79U | 0.09 |
| U1C U48C U67A U72C | 0.21 |
| U1C U48C U69C U72A | 0.14 |
| U1C U48C U72A | 0.22 |
| U1C U49A A64G C71A A75C | 0.23 |

| Variant | self-cleavage |
| --- | --- |
| U1C U49A U66C | 0.17 |
| U1C U51A A65U | 0.18 |
| U1C U51A U69G | 0.75 |
| U1C U51C C59U | 0.39 |
| U1C U51C U58C A64G U78C | 0.11 |
| U1C U54C A65G U67G C71U | 0.25 |
| U1C U58A U69G U74C | 0.26 |
| U1C U58C G61C G63A A64G U69A G70U | 0.23 |
| U1C U60A U74A U76C | 0.72 |
| U1C U60C G61A | 0.32 |
| U1C U66A U67C | 0.2 |
| U1G A2G C29G U72A U74A | 0.11 |
| U1G A5G A20U U25C A47G U54C | 0.11 |
| U1G A5G G19A U80C | 0.34 |
| U1G A5G U26C G53U A77G | 0.49 |
| U1G A18U C29U U49C | 0.24 |
| U1G A45G A47U | 0.4 |
| U1G C4G A5G A13U U54C | 1.01 |
| U1G C11G A65U U72C | 0.06 |
| U1G C12A C29U C34U | 0.08 |
| U1G C38U U43C U49C U54C U60A U69A | 0.05 |
| U1G C40U A45C U72C | 0.44 |
| U1G G6A C12G A20U U78C | 0.04 |
| U1G G8U U48A U67C | 0.05 |

| Variant | self-cleavage |
| --- | --- |
| U1G G10A A18G U41C U67C | 0.06 |
| U1G G30C U58C A64G | 0.18 |
| U1G U66C C68A U76A | 0.14 |
| A2C A3G C23U U26C U41C U60C | 0.56 |
| A2C A5C U60C | 0.73 |
| A2C A5G A28G U48G | 0.12 |
| A2C A5U C17G G22A A35U C50A | 0.2 |
| A2C A13G A18G C32U U48G | 0.34 |
| A2C A13G A21G | 0.68 |
| A2C A13U A21G A35U A45G U80C | 0.49 |
| A2C A15U A47G C79A | 0.74 |
| A2C A15U U43C U78C | 0.25 |
| A2C A20G U43A A47G A56U U72A | 0.08 |
| A2C A45U U49A G53U U67A U78C | 0.1 |
| A2C A47G U60C A64G U74A | 0.21 |
| A2C A64G U76C | 0.64 |
| A2C A65G U69C | 0.32 |
| A2C C23A A64C | 0.06 |
| A2C C23A A64U | 0.16 |
| A2C C23U U49G A56G A64U | 0.03 |
| A2C C38G U74C | 0.43 |
| A2C G6A A13G A20C A64U U66C | 0.05 |
| A2C G8A U72C | 0.4 |
| A2C G10A U66C U78C | 0.05 |

| Variant | self-cleavage |
| --- | --- |
| A2C U25G U41A U66C U72A | 0.06 |
| A2C U26C A64G | 0.35 |
| A2C U31A A77G | 0.56 |
| A2C U41C U78C | 1.06 |
| A2C U69C U80C | 0.42 |
| A2G A3G A5U A13G U26C U48G | 0.21 |
| A2G A3G A13G A20G G36A A65G | 0.06 |
| A2G A3G A13G A20U U54G G63A | 0.69 |
| A2G A3G A18G U26C A64G | 0.62 |
| A2G A3G A18U G55C | 0.27 |
| A2G A3G A28U U54C | 0.81 |
| A2G A3G A65G | 0.77 |
| A2G A3G C23G U60C U80A | 0.52 |
| A2G A3G C29G C34U U41A G63A U66C | 0.09 |
| A2G A3G G30C U43A | 0.06 |
| A2G A3G U25A U31C U49C | 0.45 |
| A2G A3G U31C C59U A65C C81A | 0.06 |
| A2G A3G U58C | 0.61 |
| A2G A3U A5U U26C U41C A47U U72A | 0.11 |
| A2G A3U A18U A56G U72C | 0.87 |
| A2G A3U U54C | 1.16 |
| A2G A5C U26C G33A U67C G70A | 0.1 |
| A2G A5G A15G A20U A21G U43C | 0.61 |
| A2G A5G A18C U43C U51A U66A | 0.1 |

| Variant | self-cleavage |
| --- | --- |
| A2G A5G A45G C62G A64U | 0.08 |
| A2G A5G G6U A56U | 0.04 |
| A2G A5G U26C A28U A65G U72C | 0.14 |
| A2G A5G U31C U51C U58C | 0.25 |
| A2G A5U A20U A28C | 0.58 |
| A2G A5U A28G U41A A56U A65G U76A | 0.07 |
| A2G A5U C12G C39A A45G A57U | 0.08 |
| A2G A5U U26A U78A | 0.94 |
| A2G A5U U60A | 0.18 |
| A2G A13C A15U U25A A47U | 0.4 |
| A2G A13G A20U U51C U54C U78C | 0.07 |
| A2G A13G A28G U43G U54C | 0.49 |
| A2G A13G C27U U58C C71U | 0.1 |
| A2G A13G C39U A47G | 0.21 |
| A2G A13G U41G U69C | 0.47 |
| A2G A13U A15U U67C U72C | 0.18 |
| A2G A13U A47G | 0.21 |
| A2G A13U A77G | 0.63 |
| A2G A13U U26C A28U U60C A65G A77U | 0.04 |
| A2G A13U U26C C27G A35U A64G | 0.11 |
| A2G A13U U41C U54G | 0.85 |
| A2G A15C U31C U80A | 0.55 |
| A2G A15G A18G A45U | 0.44 |
